According to US11498899B2, “Nitrone herbicides” (FMC Corporation, priority 2016, dated 2022):

Test system: sedge, umbrella (small-flower umbrella sedge, Cyperus difformis)
Assay: Test B flooded paddy test, visual rating 0-100
Conditions: Flood, 250 g ai/ha, applied to paddy water, rated after 13 to 15 days

Compound: CC1=[N+]([O-])C(C(=O)Nc2cccc(F)c2F)C(c2ccc(OC(F)(F)F)c(F)c2)C1 (racemic) [Compound 113]
- Sedge, Umbrella plant response rating (0 to 100 scale): 0

Compound: COc1ccc(C2CC(C)=[N+]([O-])C2C(=O)Nc2cccc(F)c2F)cc1C(F)(F)F (racemic) [Compound 74]
- Sedge, Umbrella plant response rating (0 to 100 scale): 0

Compound: CC1=[N+]([O-])C(C(=O)Nc2cccc(F)c2F)C(c2cc(F)ccc2C)C1 (racemic) [Compound 81]
- Sedge, Umbrella plant response rating (0 to 100 scale): 0
